Results: publication PMC9911399, “Two distinct binding modes provide the RNA-binding protein RbFox with extraordinary sequence specificity”
Substitutions are numbered along the chain they refer to; changes in the protein carry UniProt numbers. The list shows a part of the results.

B1: ACCGAGU (DNA:RNA)
RNA: GGGAGACCGGAAUUCAGAUUGUCCACCGAGUUUAAAUCCCGUCGUAGCCACCA
DNA 1: CAATCTGAATTCCGGTCTCCC
DNA 2: TGGTGGCTACGACGGGATT
B2: UUAGAUU (DNA:RNA)
RNA: B1 RNA with A25U, C26U, C27A, G30U
DNA 1: CAATCTGAATTCCGGTCTCCC
DNA 2: TGGTGGCTACGACGGGATT
B3: GUUGCCU (DNA:RNA)
RNA: B1 RNA with A25G, C26U, C27U, A29C, G30C
DNA 1: CAATCTGAATTCCGGTCTCCC
DNA 2: TGGTGGCTACGACGGGATT
B4: GUACGUG (DNA:RNA)
RNA: GGGAGACCGGAAUUCAGAUUGUCCGUACGUGUUAAAUCCCGUCGUAGCCACCA
DNA 1: CAATCTGAATTCCGGTCTCCC
DNA 2: TGGTGGCTACGACGGGATT
B5: GCAUUGC (DNA:RNA)
RNA: B1 RNA with A25G, C27A, G28U, A29U, U31C
DNA 1: CAATCTGAATTCCGGTCTCCC
DNA 2: TGGTGGCTACGACGGGATT
B6: UUAAUCU (DNA:RNA)
RNA: B4 RNA with G25U, C28A, G29U, U30C, G31U
DNA 1: CAATCTGAATTCCGGTCTCCC
DNA 2: TGGTGGCTACGACGGGATT
B7: ACUAUAA (DNA:RNA)
RNA: B1 RNA with C27U, G28A, A29U, G30A, U31A
DNA 1: CAATCTGAATTCCGGTCTCCC
DNA 2: TGGTGGCTACGACGGGATT
B8: AACUACG (DNA:RNA)
RNA: B1 RNA with C26A, G28U, G30C, U31G
DNA 1: CAATCTGAATTCCGGTCTCCC
DNA 2: TGGTGGCTACGACGGGATT
B9: AGAUCAC (DNA:RNA)
RNA: B1 RNA with C26G, C27A, G28U, A29C, G30A, U31C
DNA 1: CAATCTGAATTCCGGTCTCCC
DNA 2: TGGTGGCTACGACGGGATT
B10: UAGCCGU (DNA:RNA)
RNA: B1 RNA with A25U, C26A, C27G, G28C, A29C
DNA 1: CAATCTGAATTCCGGTCTCCC
DNA 2: TGGTGGCTACGACGGGATT
B11: UGAUCCU (DNA:RNA)
RNA: B1 RNA with A25U, C26G, C27A, G28U, A29C, G30C
DNA 1: CAATCTGAATTCCGGTCTCCC
DNA 2: TGGTGGCTACGACGGGATT
B12: UACGUAC (DNA:RNA)
RNA: B1 RNA with A25U, C26A, A29U, G30A, U31C
DNA 1: CAATCTGAATTCCGGTCTCCC
DNA 2: TGGTGGCTACGACGGGATT
B13: CGACGAA (DNA:RNA)
RNA: B4 RNA with G25C, U26G, U30A, G31A
DNA 1: CAATCTGAATTCCGGTCTCCC
DNA 2: TGGTGGCTACGACGGGATT
B14: CCCAGGA (DNA:RNA)
RNA: B1 RNA with A25C, G28A, A29G, U31A
DNA 1: CAATCTGAATTCCGGTCTCCC
DNA 2: TGGTGGCTACGACGGGATT
B15: UGUUGAC (DNA:RNA)
RNA: B4 RNA with G25U, U26G, A27U, C28U, U30A, G31C
DNA 1: CAATCTGAATTCCGGTCTCCC
DNA 2: TGGTGGCTACGACGGGATT
B16: CAGACCC (DNA:RNA)
RNA: GGGAGACCGGAAUUCAGAUUGUCCCAGACCCUUAAAUCCCGUCGUAGCCACCA
DNA 1: CAATCTGAATTCCGGTCTCCC
DNA 2: TGGTGGCTACGACGGGATT
B17: CCGAUCG (DNA:RNA)
RNA: B16 RNA with A26C, C29U, C31G
DNA 1: CAATCTGAATTCCGGTCTCCC
DNA 2: TGGTGGCTACGACGGGATT
B18: AAGGCAC (DNA:RNA)
RNA: B16 RNA with C25A, A28G, C30A
DNA 1: CAATCTGAATTCCGGTCTCCC
DNA 2: TGGTGGCTACGACGGGATT
B19: AACAACG (DNA:RNA)
RNA: B1 RNA with C26A, G28A, G30C, U31G
DNA 1: CAATCTGAATTCCGGTCTCCC
DNA 2: TGGTGGCTACGACGGGATT
B20: AUAUGAG (DNA:RNA)
RNA: B4 RNA with G25A, C28U, U30A
DNA 1: CAATCTGAATTCCGGTCTCCC
DNA 2: TGGTGGCTACGACGGGATT
B21: GAGAUCC (DNA:RNA)
RNA: B16 RNA with C25G, C29U
DNA 1: CAATCTGAATTCCGGTCTCCC
DNA 2: TGGTGGCTACGACGGGATT
B22: AUAAGAC (DNA:RNA)
RNA: B4 RNA with G25A, C28A, U30A, G31C
DNA 1: CAATCTGAATTCCGGTCTCCC
DNA 2: TGGTGGCTACGACGGGATT
B23: ACGGUGA (DNA:RNA)
RNA: B1 RNA with C27G, A29U, U31A
DNA 1: CAATCTGAATTCCGGTCTCCC
DNA 2: TGGTGGCTACGACGGGATT
B24: GGGUCAA (DNA:RNA)
RNA: B16 RNA with C25G, A26G, A28U, C30A, C31A
DNA 1: CAATCTGAATTCCGGTCTCCC
DNA 2: TGGTGGCTACGACGGGATT
B25: AACCUAC (DNA:RNA)
RNA: B1 RNA with C26A, G28C, A29U, G30A, U31C
DNA 1: CAATCTGAATTCCGGTCTCCC
DNA 2: TGGTGGCTACGACGGGATT
B26: GGGCAAG (DNA:RNA)
RNA: B4 RNA with U26G, A27G, G29A, U30A
DNA 1: CAATCTGAATTCCGGTCTCCC
DNA 2: TGGTGGCTACGACGGGATT
B27: UUCCAAU (DNA:RNA)
RNA: B1 RNA with A25U, C26U, G28C, G30A
DNA 1: CAATCTGAATTCCGGTCTCCC
DNA 2: TGGTGGCTACGACGGGATT
B28: UCAACAA (DNA:RNA)
RNA: B16 RNA with C25U, A26C, G27A, C30A, C31A
DNA 1: CAATCTGAATTCCGGTCTCCC
DNA 2: TGGTGGCTACGACGGGATT
B29: AGUAACG (DNA:RNA)
RNA: B1 RNA with C26G, C27U, G28A, G30C, U31G
DNA 1: CAATCTGAATTCCGGTCTCCC
DNA 2: TGGTGGCTACGACGGGATT
B30: CGGAACA (DNA:RNA)
RNA: B16 RNA with A26G, C29A, C31A
DNA 1: CAATCTGAATTCCGGTCTCCC
DNA 2: TGGTGGCTACGACGGGATT
B31: GGCUCUC (DNA:RNA)
RNA: B16 RNA with C25G, A26G, G27C, A28U, C30U
DNA 1: CAATCTGAATTCCGGTCTCCC
DNA 2: TGGTGGCTACGACGGGATT

Biological target: T1, RBFOX1 RRM RbFoxmut (Fox-RRM*) (Homo sapiens, UniProt Q9NWB1 109-208, R118D;E147R;N151S;E152T)
T1 sequence: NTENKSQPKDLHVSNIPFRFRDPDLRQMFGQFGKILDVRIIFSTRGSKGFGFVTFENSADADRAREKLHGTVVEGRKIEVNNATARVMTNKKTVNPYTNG
Experiment: EMSA; HiTS-Eq, 1 nM pool, 10 min; buffer printed only for the single-RNA assays: 10 mM Tris pH 7.5, 150 mM NaCl, 3.4 mM EDTA, 0.001% NP-40, 30 C
Conditions: tags: His6 N-terminal (pET28a); label: 5' 32P
Procedure, shortened: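 Purified wild-type or mutant RbFox RRM at increasing concentrations was equilibrated with 1 nM of 5′-radiolabelled RNA carrying 7 randomized nucleotides for 10 min in 50 µL. Unbound RNA was separated by 8% native PAGE and sequenced. Relative association constants came from read-count changes of each RNA species compared with the control reaction, normalised to the cognate motif.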

Binder	binding signal
B1	0.0972 KA relative to UGCAUGU
B2	0.0873 KA relative to UGCAUGU
B3	0.0842 KA relative to UGCAUGU
B4	0.188 KA relative to UGCAUGU
B5	0.134 KA relative to UGCAUGU
B6	0.062 KA relative to UGCAUGU
B7	0.13 KA relative to UGCAUGU
B8	0.107 KA relative to UGCAUGU
B9	0.0603 KA relative to UGCAUGU
B10	0.123 KA relative to UGCAUGU
B11	0.0524 KA relative to UGCAUGU
B12	0.0929 KA relative to UGCAUGU
B13	0.0851 KA relative to UGCAUGU
B14	0.0754 KA relative to UGCAUGU
B15	0.105 KA relative to UGCAUGU
B16	0.0621 KA relative to UGCAUGU

Binder	binding signal
B17	0.11 KA relative to UGCAUGU
B18	0.0868 KA relative to UGCAUGU
B19	0.0576 KA relative to UGCAUGU
B20	0.153 KA relative to UGCAUGU
B21	0.0646 KA relative to UGCAUGU
B22	0.0774 KA relative to UGCAUGU
B23	0.117 KA relative to UGCAUGU
B24	0.0941 KA relative to UGCAUGU
B25	0.0951 KA relative to UGCAUGU
B26	0.0894 KA relative to UGCAUGU
B27	0.0569 KA relative to UGCAUGU
B28	0.0653 KA relative to UGCAUGU
B29	0.13 KA relative to UGCAUGU
B30	0.0809 KA relative to UGCAUGU
B31	0.0755 KA relative to UGCAUGU
